# IntAct's records for PubMed 20859254
# B1: Melatonin receptor type 1A (Homo sapiens), P48039 (parent)
# chain: MQGNGSALPNASQPVLRGDGARPSWLASALACVLIFTIVVDILGNLLVILSVYRNKKLRNAGNIFVVSLAVADLVVAIYPYPLVLMSIFNNGWNLGYLHCQVSGFLMGLSVIGSIFNITGIAINRYCYICHSLKYDKLYSSKNSLCYVLLIWLLTLAAVLPNLRAGTLQYDPRIYSCTFAQSVSSAYTIAVVVFHFLVPMIIVIFCYLRIWILVLQVRQRVKPDRKPKLKPQDFRNFVTMFVVFVLFAICWAPLNFIGLAVASDPASMVPRIPEWLFVASYYMAYFNSCLNAIIYGLLNQNFRKEYRRIIVSLCTARVFFVDSSNDVADRVKWKPSPLMTNNNVVKVDSV
# partner: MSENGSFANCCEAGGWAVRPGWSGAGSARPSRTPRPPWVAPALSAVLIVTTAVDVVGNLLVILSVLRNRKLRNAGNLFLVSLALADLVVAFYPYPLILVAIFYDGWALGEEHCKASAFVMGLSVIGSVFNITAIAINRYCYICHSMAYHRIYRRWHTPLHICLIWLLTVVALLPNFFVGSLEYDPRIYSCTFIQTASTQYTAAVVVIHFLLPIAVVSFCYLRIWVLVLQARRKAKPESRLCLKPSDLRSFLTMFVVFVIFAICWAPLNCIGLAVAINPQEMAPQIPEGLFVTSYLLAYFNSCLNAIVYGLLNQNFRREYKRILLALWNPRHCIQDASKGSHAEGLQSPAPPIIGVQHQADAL
# Variants of: B1
# Conditions: with mtr1b_human MTNR1B
row,effect of a mutation on the interaction,Variant
1,increasing interaction,MQGNGSALPNASQPVLRGDGARPSWLASALACVLIFTIVVDILGNLLVILSVYRNKKLRNAGNIFVVSLAVADLVVAIYPYPLVLMSIFNNGWNLGYLHCQVSGFLMGLSVIGSIFNITGIAINRYCYICHSLKYDKLYSSKNSLCYVLLIWLLTLAAVLPNLRAGTLQYDPRIYSCTFAQSVSSAYTIAVVVFHFLVPMIIVIFCYLRIWILVLQVRQRVKPDRKPKLKPQDFRNFVTMFVVFVLFAICWCPLNFIGLAVASDPASMVPRIPEWLFVASYYMAYFNSCLNAIIYGLLNQNFRKEYRRIIVSLCTARVFFVDSSNDVADRVKWKPSPLMTNNNVVKVDSV [A252C]
2,increasing interaction,MQGNGSALPNASQPVLRGDGARPSWLASALACVLIFTIVVDILGNLLVILSVYRNKKLRNAGNIFVVSLAVADLVVAIYPYPLVLMSIFNNGWNLGYLHCQVSGFLMGLSVIGSIFNITGIAINRYCYICHSLKYDKLYSSKNSLCYVLLIWLLTLAAVLPNLRAGTLQYDPRIYSCTFAQSVSSAYTIAVVVFHFLVPMIIVIFCYLRIWILVLQVRQRVKPDRKPKLKPQDFRNFVTMFVVFVLFAICWAPLNFITLAVASDPASMVPRIPEWLFVASYYMAYFNSCLNAIIYGLLNQNFRKEYRRIIVSLCTARVFFVDSSNDVADRVKWKPSPLMTNNNVVKVDSV [G258T]
